# From PubChem BioAssay AID1745853 (National Center for Advancing Translational Sciences (NCATS), 2022)
# Several values for one entry are separate records, joined by “and”; a condition that tells them apart may be missing. Identical values can stand only once. Some of the results follow. Further columns of the screen follow, without active or inactive calls.
# Assays:
# Test in all cases: Primary Screen for Target Class Profiling of Small Molecule Inhibitors of Methyltransferases
# [1] = molecular target: Glycine N-methyltransferase (Homo sapiens) (UniProt Q14749); details: purified enzyme, MTase-Glo SAH luminescence; measured here: GNMT inhibition; at 40 µM; stronger effect = lower value
# Outline: (§1)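 Each enzyme was reacted with SAM and its substrate, with compounds tested once at 40 uM; SAH formed was read by MTase-Glo luminescence.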
# [2] = molecular target: Guanidinoacetate N-methyltransferase (Homo sapiens) (UniProt Q14353); details: purified enzyme, MTase-Glo SAH luminescence; measured here: GAMT inhibition; at 40 µM; stronger effect = lower value
# Outline: as §1
# [3] = molecular target: Histamine N-methyltransferase (Homo sapiens) (UniProt P50135); details: purified enzyme, MTase-Glo SAH luminescence; measured here: HNMT inhibition; at 40 µM; stronger effect = lower value
# Outline: as §1
# [4] = molecular target: Nicotinamide N-methyltransferase (Homo sapiens) (UniProt P40261); details: purified enzyme, MTase-Glo SAH luminescence; measured here: NNMT inhibition; at 40 µM; stronger effect = lower value
# Outline: as §1
# [5] = molecular target: Phenylethanolamine N-methyltransferase (Homo sapiens) (UniProt P11086); details: purified enzyme, MTase-Glo SAH luminescence; measured here: PNMT inhibition; at 40 µM; stronger effect = lower value
# Outline: as §1
# On the % scale 0 is the no-effect control and ±100 the full control effect.
SMILES,"activity change, negative = inhibition [1] [%]","activity change, negative = inhibition [2]","activity change, negative = inhibition [3] [%]","activity change, negative = inhibition [4]","activity change, negative = inhibition [5]"
O=C(OCC(O)CO[C@@H]1O[C@H](C(=O)O)[C@@H](O)[C@H](O)[C@H]1O)c1ccccc1 (some centres undefined),4.56,6.11%,8.97,-5.08%,0.998%
O=C(c1csc(-c2cccs2)n1)N1CCC2(CCCO2)CC1,-15.2,-16.4%,-13.7,-18%,-17.6%
CCOc1ccc(CN2C(=O)c3cc(C(=O)OC)nn3CC2(C)C(=O)NC2CCCCCC2)cc1 (centres undefined),-5.34,-0.495%,-9.54,-4.96%,-0.784%
COCC1(c2nc(C3CCOCC3)nn2-c2ccccc2)CCC1,-3.41,-9.87%,-3.38,-15.4%,7.59%
Cc1ccc(C)c(NC(=O)CN2C(=O)C(c3ccccc3)=NC23CCCC3)c1,-0.833,2.31%,0.578,1.94%,0.65%
Cc1ccc(C)c(NC(=O)N2C[C@H](c3nc(-c4cccnc4)no3)[C@@H](C)C2)c1,-8.14,-9.45%,-4.51,-32.9%,-11.2%
CCOCCCNC(=O)C1c2c(n(C)c3ccccc23)SCC(=O)N1c1ccc2c(c1)OCO2 (centres undefined),3.23,0.533%,2.54,-4.52%,-1.54%
CN(CC[C@H]1CN(C(=O)Cc2cccs2)CC[C@H]1CC(=O)O)c1ccccc1,-10.4,-2.64%,-1.79,0.151%,1.8%
COc1ccc(CCNC(=O)Cn2ccc3cc(S(=O)(=O)N4CCCCC4)ccc32)c(OC)c1,0.298,1.25%,-13.1,-10.7%,-4.76%
COc1ccc(CC(=O)N2C[C@@H](C(=O)O)[C@H](c3ccccc3)C2)c(OC)c1,-2.04,-1.15%,1.38,-0.625%,5%
CCC(C)NC(=O)c1ccc2c(=O)n(C)c3nnc(SCC(=O)Nc4ccccc4OC)n3c2c1 (centres undefined),3.93,0%,2.43,4.82%,0.656%
C=CCNC(=O)C(NC(=O)c1cccs1)C1CCN(C(=O)c2ccc(F)cc2)CC1 (centres undefined),-6.08,2.4%,0.825,-1.92%,8.2%
CN(C)c1ccc(C(=O)N2CCN3C(=O)N(CC(N)=O)C(=O)[C@@H]3C2)cc1,0.15,0.513%,2.1,-3.63%,1.85%
CCN1C(=O)c2cc(C(=O)NCc3ccc(OC)cc3OC)nn2CC1(C)C(=O)NC1CCCC1 (centres undefined),5.15,0.586%,4.6,-4.81%,4.33%
Cc1ccccc1N1C(=O)c2cc(-c3cccs3)nn2CC1(C)C(=O)NC1CCCCCC1 (centres undefined),-9.41,0%,-3.27,-1.24%,-4.12%
CN(C)CCOc1cc(-c2cn[nH]c2)ccc1NC(=O)C1COc2ccccc2O1 (centres undefined),-0.674,0.484%,-6.3,-17.1%,0.887%
COc1cccc(N2CCN(C(=O)CCc3nnc4n(Cc5ccc(C)cc5)c(=O)c5ccccc5n34)CC2)c1,-1.24,0%,-0.495,-9.17%,-8.87%
CC1(NC(=O)c2ccc(C#Cc3cccc(F)c3)cn2)COC1,-2.35,-1.9%,0.675,-40.9%,-4.31%
COCCCNC(=O)c1ccc2nnc(Cc3ccc(Cl)cc3)n2c1,-8.41,-7.67%,-17,-8.53%,-4.15%
O=c1c2ccccc2n2c(=O)n(Cc3ccc(Cl)cc3)nc2n1CCc1ccccc1,-4.61,-6.73%,7.75,-12%,-5.45%

SMILES,"activity change, negative = inhibition [1] [%]","activity change, negative = inhibition [2]","activity change, negative = inhibition [3] [%]","activity change, negative = inhibition [4]","activity change, negative = inhibition [5]"
O=C(NC1CCCC1)N1CCCC(C(=O)N2CCC(c3nc4ncccc4[nH]3)C2)C1 (centres undefined),-6.97,-6.21%,-6.52,-14.6%,6.01%
CCCn1cc(NC(=O)C[C@H]2NC(=O)c3ccccc3NC2=O)c(C)n1,-4.83,-6.71%,-2.52,-11.4%,-18.4%
NCCCCN,4.29,10.3%,6.4,-9.08%,-3.15%
COc1cc2c(c(OC)c1CC=C(C)C)C[C@H](c1ccc(O)cc1O)CO2,-4.58,3.01%,1.47,-10.7%,-7.82%
Cc1ccc(C(=O)Cn2nc3n(Cc4ccccc4)c(=O)c4ccccc4n3c2=O)cc1,-8.49,1.6%,-0.776,-6.44%,-4.04%
CCc1ccc(CN2C(=O)c3cc4ccccc4n3CC2(C)C(=O)NCc2ccccc2)cc1 (centres undefined),-0.924,4.12%,3.37,-7.5%,-2.25%
CC[C@@H]1C(=O)N(C)c2cnc(Nc3ccc(C(=O)NC4CCC(N5CCN(CC6CC6)CC5)CC4)cc3OC)nc2N1C(C)C (some centres undefined),-32.8,-8.54% and -11.7%,-37.2,-46.2% and -45%,-28.1% and -29%
O=C([C@@H]1CNC[C@H](C(=O)N2CCN(c3nccs3)CC2)C1)N1CCCC1,-6.6,-9.63%,-3.91,-16.5%,-24.1%
Cc1nnc2n1CCC(NS(=O)(=O)c1ccccc1F)CC2 (centres undefined),-4.29,-0.949%,-2.56,-2.99%,7.28%
O=C(C=CC#Cc1cccc(NS(=O)(=O)c2ccccc2)c1)NO,-4.58,–,-0.422,8.85%,38.9%
Cn1c(=O)c2ccc(C(=O)NC3CCCC3)cc2n2c(SCC(N)=O)nnc12,-0.376,0%,11.7,0.356%,7.11%
Cc1ccc(CNC(=O)N2CCCC(c3nn[nH]n3)C2)cc1 (centres undefined),-0.154,3.17%,3.07,-7.88%,5.07%
Cc1ccccc1C(=O)Nc1ccc(C(=O)N2CCCC(N(C)C)c3ccccc32)cc1 (centres undefined),-1.18,6.07%,-28.7,-15%,-0.709%
O=C(NC1CCCN(c2ccc3nnc(-c4ccccc4)n3n2)C1)c1ccc(F)cc1 (centres undefined),-4.36,1.54%,1.47,-1.76%,4.33%
Cc1cccc(-c2[nH]ncc2-c2ccc3ncccc3n2)n1,-6.24,-0.545%,-2.62,-11.3%,-5.13%
CCCN1C(=O)c2c(C(=O)NCc3ccccc3OCC)ncn2CC1(C)C(=O)NCc1ccc(OC)cc1 (centres undefined),-1.09,0%,2.56,7.15%,8.59%
Cc1ccc(CCNC(=O)CCc2nnc3n(Cc4ccc(F)cc4)c(=O)c4ccccc4n23)cc1,-10.4,4.04%,-1.96,-12%,-2.62%
Cn1c(=O)n(C)c2cc(S(=O)(=O)Nc3cccc(C(F)(F)F)c3)ccc21,-3.31,2.8%,2.87,5.41%,-2.42%
C=C1CC2OC(=O)C(=C)C2C(OC(=O)/C(C)=C\C)CC2(C)OC1=CC2=O (centres undefined),3.16,7.96%,8.97,-1.85%,8.72%
N#Cc1cccc(-c2cn3c(n2)N(C(=O)c2ccccc2F)CCC3)c1,-6.13,-1.15%,-26.9,-12.6%,-4.19%

SMILES,"activity change, negative = inhibition [1] [%]","activity change, negative = inhibition [2]","activity change, negative = inhibition [3] [%]","activity change, negative = inhibition [4]","activity change, negative = inhibition [5]"
COc1cc(C2Oc3c(O)cc(CCCO)cc3C2CO)ccc1O[C@H]1O[C@H](C)[C@@H](O)[C@H](O)[C@@H]1O (some centres undefined),1.09,9.3%,7.84,-4.4%,6.76%
COc1coc(C(=O)NCCC2CN(c3cnn(C)c(=O)c3)CCO2)cc1=O (centres undefined),-4.67,-6.96%,-2.98,-12.1%,-4.77%
Cc1ccc(CN2C(=O)c3c(-n4cccc4)c4cc(C)ccc4n3CC2(C)C(=O)NC2CCC(C)CC2)cc1 (centres undefined),-2.15,-6.85%,3.53,-2.55%,1.99%
O=C(NCCc1ccccn1)c1ccc(OC2CCNCC2)nc1,-1.34,-2.23%,1.62,0.808%,1.5%
COc1ccc(OC)c(CNS(=O)(=O)c2ccc3[nH]c(=O)[nH]c3c2)c1,15.7,2.79%,11.9,6.62%,6.1%
Cc1ccc(CN2CC(N(CC3CC3)C3CCOCC3)C2)cc1,-1.27,-0.53%,1.86,-1.28%,0.8%
COc1ccccc1CNC(=O)C1c2c(n(C)c3ccccc23)SCC(=O)N1c1ccc(F)cc1 (centres undefined),5.12,0.332%,-2.34,-4.91%,0.833%
CC1(C(=O)NCc2ccccc2)Cc2ccccc2C(=O)N1Cc1cccc(Cl)c1 (centres undefined),0.648,2.01%,0.66,-2.31%,-2.45%
CCOC(=O)c1cc2n(n1)CC(C)(C(=O)NCc1ccccc1)N(c1ccc(F)cc1)C2=O (centres undefined),-0.657,4.37%,0.729,0.234%,-0.515%
C=C(C(=O)OC)C1C(O)CC2(C)C(O)CCC(=O)C2C1O (centres undefined),-5.27,-2.02%,6.23,-15.7%,-11.4%
O=C(NCc1ccc2c(c1)OCO2)c1ccc2c(=O)nc3c(-c4ccccc4)n[nH]n3c2c1,-5.97,0%,5.48,2.03%,-0.139%
CC(C)n1cnc2c(NCCc3ccc(O)cc3)nc(-c3csc4ccccc34)nc21,0.535,-6.26%,-2.67,-21.7%,-4.98%
CC1(C(=O)NC2CCCC2)Cn2c(ccc2-c2ccco2)C(=O)N1c1ccc(Cl)cc1 (centres undefined),-4.47,1.45%,-0.492,1.9%,-2.31%
CCCn1c(=O)c2ccc(C(=O)NCC(C)C)cc2n2c(SCC(=O)Nc3cc(C)cc(C)c3)nnc12,2.7,0%,6.12,-6.81%,5.33%
CCCn1c(=O)c2ccc(C(=O)NCC(C)C)cc2n2c(SCC(=O)Nc3ccccc3F)nnc12,1.75,4.9%,2.37,-8.52%,-1.66%
Cc1ccccc1NC(=O)CSc1nnc2n(C)c(=O)c3ccc(C(=O)NC4CCCC4)cc3n12,-3.62,2.97%,-2.96,-5.56%,-0.729%
N#Cc1cccc(C(=O)N2CCCCC2CCn2cc(-c3ccccc3)nn2)c1 (centres undefined),-7.22,-11.9%,-4.13,-10.3%,-6.79%
CCC(C)NC(=O)c1ccc2c(=O)n(CCC(C)C)c3nn(CC(=O)c4ccc(OC)cc4)c(=O)n3c2c1 (centres undefined),1.87,0%,7.21,0.776%,1.72%
COC(=O)C1=CO[C@@H](O[C@@H]2O[C@H](CO[C@@H]3O[C@H](COC(=O)/C=C/c4cc(OC)c(O)c(OC)c4)[C@@H](O)[C@H](O)[C@H]3O)[C@@H](O)[C@H](O)[C@H]2O)[C@@H]2C(CO)=CC[C@H]12,5.16,4.96%,13.8,-9.66%,7.71%
Cc1ccc(CNC(=O)Cn2nc3n(C)c(=O)c4ccc(C(=O)NCC(C)C)cc4n3c2=O)cc1,3.56,0.015%,4.96,3.93%,5.81%
